Assay results published in paper PMC4336329 (PLoS ONE, 2015).
Screen size: about 310,000 compounds; about 14,000 (4.5%) showed an effect of 50% or more. Effects have a minus sign here. Some of the results follow.

Molecular target: human ether-à-go-go-related gene (hERG) potassium channel (human, UniProt Q12809)
Assay: primary screen, population patch clamp on CHO cells stably expressing hERG
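Note: peak tail current of the secondary pulse compared with the same well before compound.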

human ether-à-go-go-related gene (hERG) potassium channel, sequence (Q12809 whole entry, looked up): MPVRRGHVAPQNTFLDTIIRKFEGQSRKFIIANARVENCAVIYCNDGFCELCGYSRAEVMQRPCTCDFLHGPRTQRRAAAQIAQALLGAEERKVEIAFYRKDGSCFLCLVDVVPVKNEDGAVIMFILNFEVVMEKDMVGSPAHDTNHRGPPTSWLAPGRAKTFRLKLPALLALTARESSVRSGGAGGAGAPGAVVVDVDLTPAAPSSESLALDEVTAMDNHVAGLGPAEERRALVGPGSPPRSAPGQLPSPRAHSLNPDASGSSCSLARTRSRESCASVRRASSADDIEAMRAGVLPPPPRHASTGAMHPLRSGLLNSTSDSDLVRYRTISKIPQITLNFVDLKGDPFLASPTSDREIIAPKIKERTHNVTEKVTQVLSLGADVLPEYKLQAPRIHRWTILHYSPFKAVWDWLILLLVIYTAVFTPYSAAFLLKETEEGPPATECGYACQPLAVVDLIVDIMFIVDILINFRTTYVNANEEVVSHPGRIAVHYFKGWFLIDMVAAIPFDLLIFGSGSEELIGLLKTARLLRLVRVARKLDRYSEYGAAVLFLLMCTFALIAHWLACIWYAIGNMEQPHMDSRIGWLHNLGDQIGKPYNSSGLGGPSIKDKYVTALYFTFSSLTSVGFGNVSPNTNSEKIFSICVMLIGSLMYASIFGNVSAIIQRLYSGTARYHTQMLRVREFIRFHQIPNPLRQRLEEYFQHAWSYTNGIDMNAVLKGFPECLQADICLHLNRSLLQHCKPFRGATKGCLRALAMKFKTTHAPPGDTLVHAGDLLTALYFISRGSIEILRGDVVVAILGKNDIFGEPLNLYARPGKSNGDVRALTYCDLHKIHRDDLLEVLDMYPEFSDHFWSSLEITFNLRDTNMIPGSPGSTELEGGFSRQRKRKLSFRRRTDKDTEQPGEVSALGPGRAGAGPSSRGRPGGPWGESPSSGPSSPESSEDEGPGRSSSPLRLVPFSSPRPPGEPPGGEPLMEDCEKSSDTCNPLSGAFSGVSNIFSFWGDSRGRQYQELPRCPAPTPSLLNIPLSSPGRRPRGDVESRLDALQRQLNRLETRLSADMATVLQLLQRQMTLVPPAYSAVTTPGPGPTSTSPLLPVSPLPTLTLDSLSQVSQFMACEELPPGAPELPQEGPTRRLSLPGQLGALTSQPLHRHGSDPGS

Row | Compound | hERG current change (%, negative = inhibition) at 10uM
1 | CC(C)CCn1nnnc1C(c1ccc(F)cc1)N1CCC(C(N)=O)CC1 (stereo not shown) | -21.4%
2 | CCOc1ccccc1N1CC(C(=O)Nc2cc(S(C)(=O)=O)ccc2Cl)CC1=O (stereo not shown) | 0.00348%
3 | C1=C(c2ccccc2)Nc2ncnn2C1c1ccccc1 (stereo not shown) | -5.26%
4 | CCN1CCCC(OC(=O)C(c2ccccc2)c2ccccc2)C1.Cl (stereo not shown) | -66.1%
5 | COCCNC(=O)C1c2ccccc2C(=O)N(CCOC)C1c1ccc(F)cc1 (stereo not shown) | 15%
6 | COc1ccc(C)cc1NC(=O)CN1CCN(S(=O)(=O)c2ccc(Cl)cc2)CC1 | -23.8%
7 | COc1ccc(Nc2nc(NCCO)nc(N3CCCC3)n2)cc1 | -38.3%
8 | Cl.OCCN(CCO)CC(O)Cn1c2ccccc2c2ccccc21 (stereo not shown) | -16.1%
9 | CCOc1ccc(CCNC(=O)c2cccc(NC3=NC4CS(=O)(=O)CC4S3)c2)cc1OCC (stereo not shown) | 8.09%
10 | COc1ccc(N2C(=O)CS/C2=N\C(=S)Nc2ccccc2)cc1 | 8.31%
11 | CN(C(=O)COC(=O)C12CC3CC(CC(Cl)(C3)C1)C2)C1(C#N)CCCCC1 | -53.5%
12 | N#C/C(=C1/CCCCCN1)c1nc2ccccc2s1 | 4.18%
13 | CC1(C)CC(=O)C(C(c2cccc([N+](=O)[O-])c2)C2C(=O)CC(C)(C)CC2=O)C(=O)C1 | -1.2%
14 | O=C(NCC(=O)N1CCN(C(=O)c2ccco2)CC1)c1ccc(Cl)cc1 | -34.1%
15 | Cc1cc(C(=O)N/N=C/C=C/c2ccccc2)n[nH]1 | 2.85%
16 | COc1ccc2oc(-c3ccco3)cc(=O)c2c1 | -2.83%
17 | CCOC(=O)C1CCCN(C(=O)c2cccc(S(=O)(=O)N(Cc3ccccc3)c3ccccc3OC)c2)C1 (stereo not shown) | -33.6%
18 | CCOC(=O)C(=O)Nc1ccc([N+](=O)[O-])cc1OC | -2.52%
19 | COc1ccc(C(=O)Nc2ncc3c(n2)CC(c2ccco2)CC3=O)cc1 (stereo not shown) | -16.3%
20 | O=C(/C=C/c1ccccc1Cl)Nn1cnc2ccccc2c1=O | 5.09%
21 | CN1CCN(C(=S)NC(=O)c2ccco2)CC1 | 15.2%
22 | COc1ccc(N(CC(=O)N2CCN(c3ccccc3)CC2)S(=O)(=O)c2ccc(C)cc2)cc1 | 5.26%

Row | Compound | hERG current change (%, negative = inhibition) at 10uM
23 | CC[C@H]1c2[nH]c3ccccc3c2C[C@@H]2C(=O)N(c3ccc(F)cc3)C(=O)N21 | 16.6%
24 | CC(C)n1c(=O)[nH]c2cc(C(=O)Nc3ccccc3)ccc21 | 4.59%
25 | O=C(CCCOc1ccc(Cl)cc1)NCC1CCCO1 (stereo not shown) | 6.4%
26 | COc1ccc(C(=O)N/N=C2/SCC(=O)N2Cc2ccc3c(c2)OCO3)cc1OC | -3.17%
27 | CCCC(=O)Nc1nnc(SCC(=O)N2CCCCC2)s1 | 7.4%
28 | COc1ccc(NC(=O)c2ccc(COc3ccccc3OC)o2)cc1OC | 2.82%
29 | COC(=O)c1ccccc1NC(=O)CSc1[nH]c(=O)cc(C)c1C#N | 18.2%
30 | CC(C)(C)c1ccc(OCc2nnc(SCC(N)=O)n2N)cc1 | 3.01%
31 | Cc1nnc2sc(-c3cccc(NC(=O)c4cccnc4)c3)nn12 | -31.9%
32 | O=C1NC2(CCCC2)C(=O)N1Cc1cc(=O)n2ccsc2n1 | 8.23%
33 | O=C(OC[C@H]1O[C@@H](OC(=O)c2cc(O)c(O)c(OC(=O)c3cc(O)c(O)c(O)c3)c2)[C@H](OC(=O)c2cc(O)c(O)c(OC(=O)c3cc(O)c(O)c(O)c3)c2)[C@@H](OC(=O)c2cc(O)c(O)c(OC(=O)c3cc(O)c(O)c(O)c3)c2)[C@@H]1OC(=O)c1cc(O)c(O)c(OC(=O)c2cc(O)c(O)c(O)c2)c1)c1cc(O)c(O)c(OC(=O)c2cc(O)c(O)c(O)c2)c1 | 19.3%
34 | COc1ccc(NC(=O)CN(C)C(=O)c2cccnc2Sc2ccc(C)c(C)c2)cc1 | -2.6%
35 | COc1ccc(NC(=O)CSc2nnc(-c3cnccn3)n2C)cc1OC | 16.2%
36 | O=C(CN(Cc1cccs1)C(=O)CN1C(=O)COc2ccccc21)NCc1ccco1 | -6.28%
37 | O=C(O)C1C2C=CC3(CN(c4cccc(C(F)(F)F)c4)C(=O)C13)O2 (stereo not shown) | 17.3%
38 | O=C(Nc1cccnc1)Nc1cc(Cl)cc(Cl)c1 | 6.81%
39 | COc1cccc(CNC(=O)C(=O)N2CCC3(CC2)OCCN3S(=O)(=O)c2ccc(C)cc2)c1 | -57%
40 | Cc1ccc(N(C(=O)c2ccc(CN3CCOCC3)o2)C(C(=O)NCCC(C)C)c2cccs2)c(C)c1 (stereo not shown) | 7.06%
41 | Cc1sc2ncnc(N3CCC(C(=O)Nc4ccc(Cl)c(Cl)c4)CC3)c2c1C | -7.26%
42 | CC(=O)Nc1nc(N2C(=O)c3ccccc3C2=O)n(-c2ccccc2)n1 | 18.7%
43 | CC(=O)NNC(=O)c1nc(-c2ccccc2)c(C)o1 | 13.7%
44 | CC1(C)CN(c2ccc(N3CC(C)(C)C3=O)cc2)C1=O | 4.66%

Row | Compound | hERG current change (%, negative = inhibition) at 10uM
45 | O=C(NCc1csc(-c2cccs2)n1)c1cccc(Cl)c1 | -28.2%
46 | CC(=O)Nc1ccccc1OCCOc1ccc(Br)cc1 | -1.67%
47 | CCCN1CCN(C(=O)Cn2nc(C)n3c(cc4sccc43)c2=O)CC1 | -23.9%
48 | CN(CC(=O)Nc1c(Cl)cccc1Cl)C(=O)c1cc(-c2cccs2)nn1-c1ccccc1 | -17.1%
49 | O=C(CSc1nnc(CNC(=O)c2ccc(F)cc2)o1)NCc1ccccc1 | -24.7%
50 | CCCc1cc(=O)n2[nH]c(NC(=O)c3ccco3)nc2n1 | 18.2%
51 | CC(=O)N1CCc2cc(S(=O)(=O)CCC(=O)N3CCc4ccccc4C3)ccc21 | 6.18%
52 | CCCCNC(=O)CNC(=S)N(Cc1ccccc1)Cc1cccnc1 | -23%
53 | NNc1ccc(Cl)nn1 | 9.66%
54 | Br.N=C(N)SCCN | 17.8%
55 | COC(=O)c1c(NC(=O)c2ccc(Br)s2)sc2c1CCC2 | -8.61%
56 | CCn1ccnc1CN(C)Cc1cn(C)nc1-c1ccccc1F | 13.2%
57 | COc1ccc(NC(=O)CS(=O)(=O)c2ccc(Br)cc2)cc1 | 23.1%
58 | CN1CCN(NC(=S)Nc2ccc(Oc3ccccc3)cc2)CC1 | 1.33%
59 | CCS(=O)(=O)c1ccc2oc(SCC(=O)NCCc3ccc(OC)cc3)nc2c1 | -16.8%
60 | COc1ccc(C2c3c(ccc4ccccc34)Oc3ncn4nc(CO/N=C/c5ccccc5)nc4c32)cc1 (stereo not shown) | 5.96%
61 | Cc1ccc(Cc2cncc(O)c2)cc1S(=O)(=O)O | 4%
62 | O=C(O)c1cn(Cc2ccccn2)c(=O)c2ccccc12 | 9.76%
63 | CCOC(=O)CCC(=O)N1CCOCCOCCOCC1 | -6.15%
64 | Cc1ccc(OCCSc2nnc(NC(=O)c3ccco3)s2)cc1 | -1.66%
65 | O=C(NCC1CCCO1)c1ccc2c(c1)S(=O)(=O)c1ccccc1C2=O (stereo not shown) | -13.1%
66 | CN1c2ccc([N+](=O)[O-])cc2CC2(C(=O)NC(=O)N(c3ccc(Br)cc3)C2=O)C1c1ccccc1 (stereo not shown) | 6.47%

Row | Compound | hERG current change (%, negative = inhibition) at 10uM
67 | CCN1C(=O)/C(=C2\SC(N3CCCCC3)=NC2=O)c2ccccc21 | -0.354%
68 | Cc1ccc2nc(NC(=O)c3ccc(Cl)s3)sc2c1 | 1.34%
69 | Cc1cc(N/C=C\c2nnnn2-c2ccccc2)no1 | 11.5%
70 | CN1CCN(NC(=O)c2cccc(F)c2)CC1 | -0.119%
71 | COC(OC)c1ccnc(-c2ccc(OC(=O)c3cccs3)cc2)n1 | -18.1%
72 | COc1ccc2[nH]c(C)c(CN3CCCCC3)c(=O)c2c1 | -11%
73 | CSc1ccc(/C=C/C(=O)OCC(=O)N2CCN(S(=O)(=O)c3ccc(C)cc3C)CC2)cc1 | 6.78%
74 | O=C(NC1CCCC1)c1ccc(S(=O)(=O)N2CCCC2)cc1 | -0.792%
75 | Cc1cc(C)c(NC(=O)CS(=O)CC(=O)Nc2ccc(N3CCOCC3)cc2)c(C)c1 (stereo not shown) | 10.6%
76 | CC(=O)N1N=C(c2cccc([N+](=O)[O-])c2)OC1c1ccc(Cl)cc1Cl (stereo not shown) | 8.14%
77 | O=C(NC1CC1)c1ccc2c(c1)N(Cc1ccccc1)CCS2 | 2.8%
78 | NC(=O)NC(=O)Nc1ccccc1Cl | 16.3%
79 | CC(C)(C)S(=O)(=O)/C(C#N)=N/Nc1ccc(Cl)cc1 | 41.8%
80 | Cn1c(Cc2cccs2)nnc1SCC(=O)Nc1ccccc1 | 11.5%
81 | CC(C)(C)c1ccc(NC(=O)CCNC(=O)c2ccco2)cc1 | 6.91%
82 | CN1CCN(C(=O)c2ccccc2N(Cc2ccccc2)S(=O)(=O)c2ccccc2)CC1 | -8.4%
83 | CC(C)Oc1ccc(Cc2n[nH]c(=S)n2Cc2ccccc2)cc1Cl | 8.52%
84 | COC(=O)C1CCN(c2nc3ccccc3nc2C(C#N)C(=O)OCC(C)C)CC1 (stereo not shown) | 7.76%
85 | O=C(COc1ccccc1Cl)Nc1cc(Cl)ccc1Oc1ccccc1 | 11.3%
